Experimental data published in publication PMC3160840.
No constants are given. Whether binding was seen depends on the method and setting. Binding seen in cells or lysates may run through a third protein. Some binding calls cover weakened binding; strength is not graded here.

Amino acid sequences for entries named in this document (tags omitted).
UniProt Q9UNP9: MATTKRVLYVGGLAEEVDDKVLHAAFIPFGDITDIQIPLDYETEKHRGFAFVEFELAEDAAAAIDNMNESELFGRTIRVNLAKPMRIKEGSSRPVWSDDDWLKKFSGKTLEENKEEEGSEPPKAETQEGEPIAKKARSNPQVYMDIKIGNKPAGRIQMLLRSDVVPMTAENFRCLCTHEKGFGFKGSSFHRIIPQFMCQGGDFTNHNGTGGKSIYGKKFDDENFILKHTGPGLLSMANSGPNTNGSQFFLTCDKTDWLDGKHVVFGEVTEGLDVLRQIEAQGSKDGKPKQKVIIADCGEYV
UniProt P15682: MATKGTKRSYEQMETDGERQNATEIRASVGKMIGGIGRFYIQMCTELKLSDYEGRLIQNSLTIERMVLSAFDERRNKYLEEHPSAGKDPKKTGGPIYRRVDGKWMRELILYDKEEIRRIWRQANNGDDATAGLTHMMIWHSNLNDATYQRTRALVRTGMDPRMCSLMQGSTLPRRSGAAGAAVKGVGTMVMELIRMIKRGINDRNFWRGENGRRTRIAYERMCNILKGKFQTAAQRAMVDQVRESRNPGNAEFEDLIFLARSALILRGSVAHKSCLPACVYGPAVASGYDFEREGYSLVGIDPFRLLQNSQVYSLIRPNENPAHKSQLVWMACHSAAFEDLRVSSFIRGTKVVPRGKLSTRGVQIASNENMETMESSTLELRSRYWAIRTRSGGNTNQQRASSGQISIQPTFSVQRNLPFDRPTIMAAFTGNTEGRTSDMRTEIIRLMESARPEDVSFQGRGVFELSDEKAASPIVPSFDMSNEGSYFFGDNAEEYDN
UniProt P03430: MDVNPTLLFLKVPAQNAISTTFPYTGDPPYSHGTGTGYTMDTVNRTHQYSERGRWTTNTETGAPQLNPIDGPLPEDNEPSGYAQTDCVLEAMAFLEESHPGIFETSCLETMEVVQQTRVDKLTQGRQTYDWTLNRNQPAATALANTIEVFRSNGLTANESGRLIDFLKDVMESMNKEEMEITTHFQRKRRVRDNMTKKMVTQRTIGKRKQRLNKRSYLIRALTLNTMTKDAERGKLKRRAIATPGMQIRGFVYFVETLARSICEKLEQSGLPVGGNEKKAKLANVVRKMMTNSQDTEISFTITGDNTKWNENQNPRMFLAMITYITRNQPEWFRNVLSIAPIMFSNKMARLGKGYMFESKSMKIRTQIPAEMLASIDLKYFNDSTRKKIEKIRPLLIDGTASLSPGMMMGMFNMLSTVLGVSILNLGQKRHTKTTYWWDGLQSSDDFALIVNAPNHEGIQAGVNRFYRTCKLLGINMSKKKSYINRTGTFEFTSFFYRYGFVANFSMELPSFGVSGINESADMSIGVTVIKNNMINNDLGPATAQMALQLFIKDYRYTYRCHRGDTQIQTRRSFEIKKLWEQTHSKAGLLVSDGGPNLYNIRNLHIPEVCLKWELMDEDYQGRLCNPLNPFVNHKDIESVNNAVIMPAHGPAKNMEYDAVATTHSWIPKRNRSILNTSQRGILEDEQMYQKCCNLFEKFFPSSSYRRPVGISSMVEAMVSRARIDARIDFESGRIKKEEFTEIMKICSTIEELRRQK
UniProt P03427: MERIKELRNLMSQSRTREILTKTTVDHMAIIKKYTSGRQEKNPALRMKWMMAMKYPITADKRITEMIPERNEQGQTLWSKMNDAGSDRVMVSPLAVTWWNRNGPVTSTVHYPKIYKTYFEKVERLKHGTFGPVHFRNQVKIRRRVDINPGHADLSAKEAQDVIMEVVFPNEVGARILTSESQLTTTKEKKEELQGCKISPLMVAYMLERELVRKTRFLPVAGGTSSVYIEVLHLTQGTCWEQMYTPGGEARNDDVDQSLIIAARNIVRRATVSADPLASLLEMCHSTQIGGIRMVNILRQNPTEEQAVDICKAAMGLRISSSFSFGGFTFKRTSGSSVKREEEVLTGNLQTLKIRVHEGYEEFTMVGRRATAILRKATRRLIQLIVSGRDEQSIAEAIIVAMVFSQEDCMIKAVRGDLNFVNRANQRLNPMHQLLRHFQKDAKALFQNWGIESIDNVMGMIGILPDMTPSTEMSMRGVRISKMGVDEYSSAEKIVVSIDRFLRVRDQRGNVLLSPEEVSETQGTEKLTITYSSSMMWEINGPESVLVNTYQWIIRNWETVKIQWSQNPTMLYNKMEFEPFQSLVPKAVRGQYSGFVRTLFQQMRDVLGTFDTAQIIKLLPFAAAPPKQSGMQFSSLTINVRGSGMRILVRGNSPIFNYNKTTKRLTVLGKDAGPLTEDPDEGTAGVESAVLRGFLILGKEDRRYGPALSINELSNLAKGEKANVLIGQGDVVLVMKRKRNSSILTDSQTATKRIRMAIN

Tests used:
[1] = molecular target: GST-CypE (Cyclophilin E fused to GST) (human) (UniProt Q9UNP9); test: pull-down; only the target purified
[2] = molecular target: FLAG-tagged NP (influenza A virus A/WSN/33 (H1N1)) (UniProt P15682); test: co-IP
[3] = molecular target: FLAG-tagged PB1 (influenza A virus A/WSN/33 (H1N1)) (UniProt P03430); test: co-IP
[4] = molecular target: FLAG-tagged PB2 (influenza A virus A/WSN/33 (H1N1)) (UniProt P03427); test: co-IP
[5] = molecular target: NP in 293T cells infected with A/WSN/33 (influenza A virus A/WSN/33 (H1N1)) (UniProt P15682); test: co-IP

NP from MDCK cells infected with influenza A virus (A/WSN/33) (from UniProt P15682 1-498)
binding [1]: binds

Myc-tagged CypE (from UniProt Q9UNP9 1-301)
binding [2]: binds
binding [3]: no binding
binding [4]: no binding

endogenous CypE (from UniProt Q9UNP9 1-301)
binding [5]: binds
